Measurements from PMC4274665.
These are yes or no findings as the source states them, for the method shown. Binding seen in cells or lysates may run through a third protein. Some results given as binding are weak or reduced against the parent protein; the word gives no strength. Where a sequence is shown, tags or fusion partners need not be part of it. Blank lines part the entries; values can stand above or below the molecule they belong to.

The chains behind the UniProt entries cited, without tags or fusion partners. Where a name states a change or a piece, a line headed by the entry shows the natural chain unless it says otherwise.
UniProt P21513: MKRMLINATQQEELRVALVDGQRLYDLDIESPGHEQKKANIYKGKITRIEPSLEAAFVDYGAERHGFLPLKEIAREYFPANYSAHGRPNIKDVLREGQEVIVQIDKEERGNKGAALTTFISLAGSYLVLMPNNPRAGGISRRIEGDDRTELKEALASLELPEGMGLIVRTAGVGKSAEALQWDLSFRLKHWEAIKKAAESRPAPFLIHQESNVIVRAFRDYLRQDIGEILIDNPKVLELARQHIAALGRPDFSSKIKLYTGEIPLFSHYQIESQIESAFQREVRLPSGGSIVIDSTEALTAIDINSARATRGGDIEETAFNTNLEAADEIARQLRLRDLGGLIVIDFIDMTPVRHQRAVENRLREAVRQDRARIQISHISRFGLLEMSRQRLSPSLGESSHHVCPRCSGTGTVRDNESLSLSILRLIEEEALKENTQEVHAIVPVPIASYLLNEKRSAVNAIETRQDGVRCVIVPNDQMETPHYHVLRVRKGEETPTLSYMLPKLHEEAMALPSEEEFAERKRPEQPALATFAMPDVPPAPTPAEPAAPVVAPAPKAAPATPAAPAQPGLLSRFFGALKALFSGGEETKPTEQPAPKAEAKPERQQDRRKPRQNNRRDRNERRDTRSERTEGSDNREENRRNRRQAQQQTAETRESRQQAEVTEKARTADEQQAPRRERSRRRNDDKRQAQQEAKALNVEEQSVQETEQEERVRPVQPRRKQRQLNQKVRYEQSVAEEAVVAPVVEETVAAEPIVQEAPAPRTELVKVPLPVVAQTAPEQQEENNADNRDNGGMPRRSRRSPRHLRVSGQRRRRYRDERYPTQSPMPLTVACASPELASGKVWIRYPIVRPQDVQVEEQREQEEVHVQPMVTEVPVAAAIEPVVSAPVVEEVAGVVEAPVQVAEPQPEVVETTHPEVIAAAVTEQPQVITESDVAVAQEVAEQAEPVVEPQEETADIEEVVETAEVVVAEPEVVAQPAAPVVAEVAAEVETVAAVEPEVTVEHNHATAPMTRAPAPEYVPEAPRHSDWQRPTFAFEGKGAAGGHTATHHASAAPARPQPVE
UniProt P0A6P9: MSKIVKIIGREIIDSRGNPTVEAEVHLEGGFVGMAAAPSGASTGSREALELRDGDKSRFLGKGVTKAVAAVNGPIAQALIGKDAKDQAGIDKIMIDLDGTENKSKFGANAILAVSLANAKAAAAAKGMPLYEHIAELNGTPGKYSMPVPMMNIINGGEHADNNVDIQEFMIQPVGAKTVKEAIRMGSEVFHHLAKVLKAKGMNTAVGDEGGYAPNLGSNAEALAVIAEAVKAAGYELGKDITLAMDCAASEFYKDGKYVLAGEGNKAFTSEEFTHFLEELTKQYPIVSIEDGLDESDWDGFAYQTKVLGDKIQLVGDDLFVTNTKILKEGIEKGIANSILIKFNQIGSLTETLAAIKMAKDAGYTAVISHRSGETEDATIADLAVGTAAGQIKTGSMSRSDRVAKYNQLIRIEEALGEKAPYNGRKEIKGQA

Legend:
RNase II–Flag (E. coli) [1] = biological target: T1, RNase II–Flag (E. coli) (UniProt P30850); experiment: co-IP; anti-Flag beads; 1 mg protein extract of cells with chromosomally encoded RNase II–Flag and RNaseE–HA (or RNaseE^(1–417)–HA, RNaseE^(1–659)–HA); overnight at 4°C in IP buffer (25 mM Tris pH 7.5, 150 mM NaCl, 1 mM DTT, 1 mM EDTA, 5% glycerol, 1% nonidet P-40); Western blot; also extracts of cells lacking Eno, PNPase, or PNPase and Eno
T1 sequence: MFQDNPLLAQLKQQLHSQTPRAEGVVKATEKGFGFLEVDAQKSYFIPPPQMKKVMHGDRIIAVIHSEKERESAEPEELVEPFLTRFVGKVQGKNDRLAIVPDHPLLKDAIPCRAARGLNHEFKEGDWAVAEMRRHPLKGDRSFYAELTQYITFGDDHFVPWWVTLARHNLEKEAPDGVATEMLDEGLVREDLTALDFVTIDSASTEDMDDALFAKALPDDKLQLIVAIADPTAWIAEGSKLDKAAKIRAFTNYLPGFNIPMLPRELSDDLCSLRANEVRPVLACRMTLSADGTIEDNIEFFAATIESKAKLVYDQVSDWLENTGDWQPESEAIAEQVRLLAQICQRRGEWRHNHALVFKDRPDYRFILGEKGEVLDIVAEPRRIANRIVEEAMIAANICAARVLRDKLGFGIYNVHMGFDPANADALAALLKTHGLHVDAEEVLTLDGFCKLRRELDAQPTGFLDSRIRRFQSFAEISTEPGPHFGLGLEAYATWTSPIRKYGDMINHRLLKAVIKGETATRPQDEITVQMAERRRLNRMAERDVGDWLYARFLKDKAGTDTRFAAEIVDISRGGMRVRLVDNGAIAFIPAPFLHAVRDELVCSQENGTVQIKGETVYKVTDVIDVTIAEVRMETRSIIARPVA

RNase II–Flag (E. coli) [2] = biological target: T1, RNase II–Flag (E. coli); experiment: co-IP; anti-Flag beads; protein extracts of cells with chromosomally encoded RNase II–Flag and RNaseE^(1–417) plus plasmid-encoded HA-tagged RNaseE^C fragments under Plac (100 μM IPTG for 30 or 50 min); Western blot
[3] = biological target: RNaseE^(820–1061)–HA (E. coli) (UniProt P21513); experiment: co-IP; anti-HA beads (protein A/G); protein extracts of cells with chromosomally encoded RNase II–Flag and RNaseE^(1–417) plus plasmid-encoded HA-tagged RNaseE^C fragments under Plac; Western blot with antibodies against the HA and Flag tags, PNPase and Eno
[4] = biological target: RNaseE^(762–1021)–HA (E. coli) (UniProt P21513); experiment: as above

binding (RNase II–Flag (E. coli) [1]): no binding
Molecule: RNaseE^(1–659)–HA (from UniProt P21513 1-659) (domain or fragment)

binding (RNase II–Flag (E. coli) [1]): no binding
Molecule: RNaseE^(1–417)–HA (from UniProt P21513 1-417) (domain or fragment)

binding (RNase II–Flag (E. coli) [2]): no binding
Molecule: RNaseE^(762–1021)–HA (from UniProt P21513 762-1021) (domain or fragment)

binding (RNase II–Flag (E. coli) [2]): no binding
Molecule: RNaseE^(820–1061)–HA (from UniProt P21513 820-1061) (domain or fragment)

binding [3]: binds | binding [4]: binds
Molecule: Eno (enolase) (from UniProt P0A6P9 1-432) (enzyme)

binding [3]: binds
B1: PNPase (polynucleotide phosphorylase) (enzyme, UniProt P05055 1-711)
chain: MLNPIVRKFQYGQHTVTLETGMMARQATAAVMVSMDDTAVFVTVVGQKKAKPGQDFFPLTVNYQERTYAAGRIPGSFFRREGRPSEGETLIARLIDRPIRPLFPEGFVNEVQVIATVVSVNPQVNPDIVAMIGASAALSLSGIPFNGPIGAARVGYINDQYVLNPTQDELKESKLDLVVAGTEAAVLMVESEAQLLSEDQMLGAVVFGHEQQQVVIQNINELVKEAGKPRWDWQPEPVNEALNARVAALAEARLSDAYRITDKQERYAQVDVIKSETIATLLAEDETLDENELGEILHAIEKNVVRSRVLAGEPRIDGREKDMIRGLDVRTGVLPRTHGSALFTRGETQALVTATLGTARDAQVLDELMGERTDTFLFHYNFPPYSVGETGMVGSPKRREIGHGRLAKRGVLAVMPDMDKFPYTVRVVSEITESNGSSSMASVCGASLALMDAGVPIKAAVAGIAMGLVKEGDNYVVLSDILGDEDHLGDMDFKVAGSRDGISALQMDIKIEGITKEIMQVALNQAKGARLHILGVMEQAINAPRGDISEFAPRIHTIKINPDKIKDVIGKGGSVIRALTEETGTTIEIEDDGTVKIAATDGEKAKHAIRRIEEITAEIEVGRVYTGKVTRIVDFGAFVAIGGGKEGLVHISQIADKRVEKVTDYLQMGQEVPVKVLEVDRQGRIRLSIKEATEQSQPAAAPEAPAAEQGE

binding [3]: no binding | binding [4]: no binding
B2: RNase II–Flag (enzyme, UniProt P30850 1-644)
chain: MFQDNPLLAQLKQQLHSQTPRAEGVVKATEKGFGFLEVDAQKSYFIPPPQMKKVMHGDRIIAVIHSEKERESAEPEELVEPFLTRFVGKVQGKNDRLAIVPDHPLLKDAIPCRAARGLNHEFKEGDWAVAEMRRHPLKGDRSFYAELTQYITFGDDHFVPWWVTLARHNLEKEAPDGVATEMLDEGLVREDLTALDFVTIDSASTEDMDDALFAKALPDDKLQLIVAIADPTAWIAEGSKLDKAAKIRAFTNYLPGFNIPMLPRELSDDLCSLRANEVRPVLACRMTLSADGTIEDNIEFFAATIESKAKLVYDQVSDWLENTGDWQPESEAIAEQVRLLAQICQRRGEWRHNHALVFKDRPDYRFILGEKGEVLDIVAEPRRIANRIVEEAMIAANICAARVLRDKLGFGIYNVHMGFDPANADALAALLKTHGLHVDAEEVLTLDGFCKLRRELDAQPTGFLDSRIRRFQSFAEISTEPGPHFGLGLEAYATWTSPIRKYGDMINHRLLKAVIKGETATRPQDEITVQMAERRRLNRMAERDVGDWLYARFLKDKAGTDTRFAAEIVDISRGGMRVRLVDNGAIAFIPAPFLHAVRDELVCSQENGTVQIKGETVYKVTDVIDVTIAEVRMETRSIIARPVA
